The whole screen tested about 46,000 compounds, of which about 60 (0.1%) were called active. Another 3% or so got no clear call; they are omitted. Calls follow the shape of the dose curve; as a rule, active = well fitted inhibition curve with a large enough effect; inconclusive = small, poorly fitted or top-dose-only effect; inactive = no such curve, though single readings can be large or run the other way. The list shows a part of the results.

The test in a line: Primary qHTS assay for Inhibitors of ovarian cancer metastasis using an organotypic tumor microenvironment (TME) model. Also: nearly all actives have a fitted effect of over 65% in size.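 As to activity change, negative = inhibition: plate controls were DMSO wells for no effect and tomatine positive control wells for full effect.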 The note with it: SKOV3ip1-GFP adhesion/invasion on 3D omental model, fluorescence; series mostly up to 45.8 µM; activity change, negative = inhibition: at the top concentration. In outline: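 A 3D layer of primary human omental fibroblasts, mesothelial cells, fibronectin and collagen I, grown 48 hr, received SKOV3ip1-GFP cells in serum-free medium plus compounds at 0.36-46 umol/L. After 2 hr RT and 16 hr 37 C, fixed adherent GFP cells were counted; normalized to DMSO and tomatine.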
With `Cc1cccc(C)c1OCCCn1c(CCNC(=O)C2CCCCC2)nc2ccccc21`, the “activity change, negative = inhibition” value was inactive: 10.6%.
The same measure, in the same setting: the value for `Cc1ccc(NC(=O)Cn2c(=O)n(Cc3nc(C)no3)c(=O)c3ccccc32)c(Cl)c1` was inactive: -8.51%.
In the case of `Cc1c(CNC2CCCCC2)c(C(=O)O)c(C)n1Cc1cccc(Cl)c1`, the result was inactive.
The same measure, in the same setting: in the case of `CCc1ccc(NC(=O)CN2C(=O)C(c3ccc(Cl)cc3)=NC23CCCCC3)cc1` it was “inactive”; in that of `CCOc1ccccc1NC(=O)c1nc(SC(C)C)ncc1Cl`, “inactive”.
`Cc1c(CCC(=O)NCCc2ccc(Cl)cc2)c(=O)oc2c(C)c(O)ccc12`: the “activity change, negative = inhibition” value is inactive: 7.43%.
For the molecule `CCc1ccc(-n2c(=O)c3c4c(sc3n(CC(=O)N3CCCCC3CC)c2=O)CCC4)cc1` (configuration not stated), the “activity change, negative = inhibition” value is inactive: 8.62%.
Still for that read-out and setting: the value for `Cc1ccc(CNC(=O)c2ccc(NC(=O)N3CCSc4ncccc43)cc2)cc1` was inactive: -9.05%.
Still for that read-out and setting: the value for `O=C(NCc1cccs1)c1ccc2c(=O)n3nc(Nc4ccccc4)sc3nc2c1` was inactive: -8.54%; that for `Cc1ccc2c(c1Br)C(O)(CC(=O)c1ccc(F)cc1)C(=O)N2` (configuration not stated) was inactive: 0.821%; that for `O=C(NC1CC(=O)N(c2ccc(F)cc2)C1)c1ccc(S(=O)(=O)N2CCCCC2)cc1` (configuration not stated) was inactive: 3.88%.
Same read-out and setting: in the case of `CCOC(=O)Cn1c(=O)n(CC2CCCO2)c2nc(-c3ccccc3OC)nc(C(N)=O)c21` (configuration not stated) it was inactive: 1%.
Take `O=c1c2sc3ccccc3c2n(Cc2cccc(F)c2)c(=O)n1Cc1ccccc1`: the “activity change, negative = inhibition” value was inactive: -18.5%.
Same read-out and setting: in the case of `O=C(Cn1c(=O)n(Cc2nc(-c3ccccc3)no2)c(=O)c2ccccc21)Nc1cccc(C(F)(F)F)c1` it was inactive: -0.977%.
The same measure, in the same setting: in the case of `O=C(c1ccc2c(c1)N(Cc1ccccc1F)C(=O)c1ccccc1S2(=O)=O)N1CCC(Cc2ccccc2)CC1` it was inactive: 10.6%.
`COc1ccc(-c2cc(C(=O)Nc3c(C(=O)c4ccc(C)cc4)oc4ccccc34)no2)cc1`: the outcome was inactive.
`COc1ccccc1CNC(=O)C1CCCN(S(=O)(=O)c2ccc3c(c2)oc(=O)n3C)C1` (configuration not stated): the “activity change, negative = inhibition” value is inactive: -21.8%.
As for `CCOc1ccccc1C(=O)N(Cc1ccco1)Cc1ccco1`, the molecule was classed as inactive.
As for `Cc1c(Cl)cccc1NC(=O)CC1Oc2ccccc2NC1=O` (configuration not stated), the “activity change, negative = inhibition” value was inactive: 5.53%.
As to `Cc1cccc2sc(N(Cc3cccnc3)C(=O)CCc3ccccc3)nc12`, the molecule was classed as inactive.
For the molecule `CCOC(=O)c1ccc(N2C(=O)c3[nH]nc(-c4ccccc4)c3C2c2ccc(CC)cc2)cc1` (configuration not stated), the “activity change, negative = inhibition” value is inactive: -8.12%.
Still for that read-out and setting: in the case of `CCOc1ccccc1NC(=O)CN1C(=O)COc2ccc(S(=O)(=O)N3CCOCC3)cc21` it was inactive: -22.2%.
Regarding `CCOc1ccc(NCc2cccn2-c2nnc(N3CCC(C(=O)NCC(C)c4ccccc4)CC3)s2)cc1` (configuration not stated), the “activity change, negative = inhibition” value is inactive: -17.9%.
Regarding `COc1ccc(Cn2c(CCC(=O)Nc3cc(OC)c(OC)c(OC)c3)nc3cccnc32)cc1`, the “activity change, negative = inhibition” value is inactive: 5.36%.
With `O=C(CSc1nccn1Cc1ccccc1)NCc1ccco1`, the “activity change, negative = inhibition” value is inactive: -2.96%.
With `CCOC(=O)c1cc(-c2ccc(OC)cc2)n(CCC(=O)Nc2ccccc2OC)c1C`, the “activity change, negative = inhibition” value is inactive: -13.4%.
The same measure, in the same setting: in the case of `CC1C(=O)Nc2ccc(S(=O)(=O)N3CCCCC3)cc2NC1=O` (configuration not stated) it was inactive: -23.5%; in that of `CCC(CC)C(=O)OCc1cc(=O)n2nc(C3CC3)sc2n1`, inactive: 2.23%.
On the same count and under the same terms, in the case of `Cn1cc(-c2cc3n(n2)CCC(=O)N3CCCC(=O)NCc2ccc(Cl)cc2)c2ccccc21` it was inactive: -25.9%.
The same measure, in the same setting: the value for `O=C(CCCn1c(=O)c2cccn2c2ccccc21)Nc1cc(C(F)(F)F)ccc1Cl` was inactive: -22.7%.
In the case of `Cc1cc(C)n(C(C)CC(=O)Nc2cccc(C(F)(F)F)c2)n1` (configuration not stated), the “activity change, negative = inhibition” value was inactive: -9.01%.
In the case of `CCN(CC)c1ccc(NC(=O)C2CCN(c3nnc(-n4cccc4)s3)CC2)c(C)c1`, the “activity change, negative = inhibition” value is inactive: -16.4%.
Still for that read-out and setting: in the case of `CCN(c1ccccc1)S(=O)(=O)c1ccc(NC(=O)c2nc(SC)ncc2Cl)cc1` it was inactive: -13.4%.
With `COc1cc(/C=C(\C#N)C(=O)NCC2CCCO2)ccc1O` (configuration not stated), the “activity change, negative = inhibition” value was inactive: -1.84%.
Still for that read-out and setting: the value for `CCc1ccccc1NC(=O)CSc1nc(-c2cccc(Cl)c2)nc2c1Cc1c(CO)cnc(C)c1O2` was inactive: -2.81%.
Still for that read-out and setting: in the case of `CCOc1ccc(CN2CCc3nc(N4CCN(c5ccccc5OC)CC4)ncc3C2)cc1OC` it was inactive: -2.27%.
Same read-out and setting: in the case of `CC(C)(C)OC(=O)N1CCC(c2c(C(=O)NCc3cccc(Cl)c3)cnn2-c2ccc(F)cc2)CC1` it was inactive: -11.2%; in that of `O=C(Nc1cc(-c2nc3ccccc3o2)ccc1Cl)c1sc2c([N+](=O)[O-])cccc2c1Cl`, inactive: -1.74%.
With `COc1ccc(-c2nc(SCC(=O)NC3CCCC3)c(-c3ccc(F)cc3)[nH]2)cc1`, the call was inactive.
Consider `CCOC(=O)c1ccc(NC(=O)CC2C(=O)N(c3ccc(F)cc3)C(=O)N2Cc2cccnc2)cc1` (configuration not stated), for which the “activity change, negative = inhibition” value was inactive: 6.41%.
On the same count and under the same terms, in the case of `CC1CCN(C(=O)Cn2c(=O)n(CC3CCC(C(=O)NC(C)C)CC3)c(=O)c3sccc32)CC1` (configuration not stated) it was inactive: 0.812%.
Still for that read-out and setting: in the case of `O=C(NCCCN1CCCCC1)c1sc2ncccc2c1-n1cccc1` it was inactive: 18.5%.
In the case of `Cc1ccccc1C(=O)Nc1nnc(S(=O)(=O)N(C)Cc2ccccc2)s1`, the molecule was called inactive.
Take `COc1ccc(-n2c(-c3ccc(C)cc3)cc3c2CC(C)(C)CC3=O)cc1Cl`: the “activity change, negative = inhibition” value was inactive: -0.0638%.
Still for that read-out and setting: the value for `CCn1nc(C)c2c(-c3ccccc3)cc(=O)n(C(C)C(=O)NCCC(C)C)c21` (configuration not stated) was inactive: 1.64%; that for `COc1ccc(S(=O)(=O)NCC(c2ccco2)S(=O)(=O)c2ccc(C)cc2)cc1F` (configuration not stated) was inactive: 2.34%; that for `CC(C)c1ccc(Cn2c(COc3ccccc3)nc3ccccc32)cc1` was inactive: -0.836%.

These data come from PubChem BioAssay AID1963576 (National Center for Advancing Translational Sciences (NCATS), 2024).
